Source: the supplement of paper PMC8728848
Some of the results follow.

Key:
Test in all cases: glycan array binding signal (z-score within array); higher = stronger binding
Conditions in all cases: glycan notation: IUPAC condensed, linker removed
[1] = biological target: Neu5Ac(a2-3)Gal(b1-4)[Fuc(a1-3)]GlcNAc
Outline: (§1)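 Arrays were curated from the Consortium for Functional Glycomics database, 3228 in total, and kept only where the protein sequence was available. Binding is expressed as a within-array Z-score. This score was averaged across arrays of the same protein sequence at different concentrations or buffers and across linkers, and negative values can be read as non-binding.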

[2] = biological target: Neu5Ac(a2-3)Gal(b1-4)[Fuc(a1-3)]GlcNAc(b1-3)Gal
Outline: as §1

[3] = biological target: Neu5Ac(a2-3)Gal(b1-4)[Fuc(a1-3)]GlcNAc(b1-3)Gal(b1-4)GlcNAc
Outline: as §1

[4] = biological target: Neu5Ac(a2-3)Gal(b1-4)[Fuc(a1-3)]GlcNAc(b1-3)Gal(b1-4)[Fuc(a1-3)]GlcNAc(b1-3)Gal(b1-4)[Fuc(a1-3)]GlcNAc
Outline: as §1

[5] = biological target: Neu5Ac(a2-3)Gal(b1-4)[Fuc(a1-3)]GlcNAc(b1-3)GalNAc
Outline: as §1

[6] = biological target: Neu5Ac(a2-3)Gal(b1-4)[Fuc(a1-3)]GlcNAc(b1-6)[Gal(b1-3)]GalNAc
Outline: as §1

[7] = biological target: Neu5Ac(a2-3)Gal(b1-4)[Fuc(a1-3)]GlcNAc(b1-6)[Neu5Ac(a2-3)Gal(b1-3)]GalNAc
Outline: as §1

[8] = biological target: Neu5Ac(a2-3)Gal(b1-4)[Fuc(a1-3)]GlcNAc6S
Outline: as §1

[9] = biological target: Neu5Ac(a2-3)Gal6S(b1-4)GlcNAc
Outline: as §1

[10] = biological target: Neu5Ac(a2-3)Gal6S(b1-4)[Fuc(a1-3)]GlcNAc
Outline: as §1

Neu5Ac(a2-3)GalNAc = biological target: Neu5Ac(a2-3)GalNAc
Outline: as §1

[11] = biological target: Neu5Ac(a2-3)GalNAc(b1-4)GlcNAc
Outline: as §1

[12] = biological target: Neu5Ac(a2-3)[GalNAc(b1-4)]Gal(b1-4)Glc
Outline: as §1

[13] = biological target: Neu5Ac(a2-3)[GalNAc(b1-4)]Gal(b1-4)GlcNAc
Outline: as §1

[14] = biological target: Neu5Ac(a2-3)[GalNAc(b1-4)]Gal(b1-4)GlcNAc(b1-3)GalNAc
Outline: as §1

[15] = biological target: Neu5Ac(a2-3)[Neu5Ac(a2-6)]GalNAc
Outline: as §1

Neu5Ac(a2-6)Gal = biological target: Neu5Ac(a2-6)Gal
Outline: as §1

[16] = biological target: Neu5Ac(a2-6)Gal(b1-3)GlcNAc(b1-3)[Gal(b1-4)GlcNAc(b1-6)]Gal(b1-4)Glc
Outline: as §1

Neu5Ac(a2-6)Gal(b1-4)Glc = biological target: Neu5Ac(a2-6)Gal(b1-4)Glc
Outline: as §1

[17] = biological target: Neu5Ac(a2-6)Gal(b1-4)GlcNAc
Outline: as §1

[18] = biological target: Neu5Ac(a2-6)Gal(b1-4)GlcNAc(b1-2)Man(a1-3)Man(b1-4)GlcNAc(b1-4)GlcNAc
Outline: as §1

[19] = biological target: Neu5Ac(a2-6)Gal(b1-4)GlcNAc(b1-2)Man(a1-3)[Gal(b1-4)GlcNAc(b1-2)Man(a1-6)]Man(b1-4)GlcNAc(b1-4)GlcNAc
Outline: as §1

[20] = biological target: Neu5Ac(a2-6)Gal(b1-4)GlcNAc(b1-2)Man(a1-3)[GlcNAc(b1-2)Man(a1-6)]Man(b1-4)GlcNAc(b1-4)GlcNAc
Outline: as §1

[21] = biological target: Neu5Ac(a2-6)Gal(b1-4)GlcNAc(b1-2)Man(a1-3)[GlcNAc(b1-2)Man(b1-4)GlcNAc(b1-2)Man(a1-6)]Man(b1-4)GlcNAc(b1-4)GlcNAc
Outline: as §1

[22] = biological target: Neu5Ac(a2-6)Gal(b1-4)GlcNAc(b1-2)Man(a1-3)[Man(a1-6)]Man(b1-4)GlcNAc(b1-4)GlcNAc
Outline: as §1

[23] = biological target: Neu5Ac(a2-6)Gal(b1-4)GlcNAc(b1-2)Man(a1-3)[Neu5Ac(a2-6)Gal(b1-4)GlcNAc(b1-2)Man(a1-6)]Man(b1-4)GlcNAc(b1-4)GlcNAc
Outline: as §1

[24] = biological target: Neu5Ac(a2-6)Gal(b1-4)GlcNAc(b1-2)Man(a1-6)Man(b1-4)GlcNAc(b1-4)GlcNAc
Outline: as §1

[25] = biological target: Neu5Ac(a2-6)Gal(b1-4)GlcNAc(b1-2)Man(a1-6)[Gal(b1-4)GlcNAc(b1-2)Man(a1-3)]Man(b1-4)GlcNAc(b1-4)GlcNAc
Outline: as §1

[26] = biological target: Neu5Ac(a2-6)Gal(b1-4)GlcNAc(b1-2)Man(a1-6)[GlcNAc(b1-2)Man(a1-3)]Man(b1-4)GlcNAc(b1-4)GlcNAc
Outline: as §1

[27] = biological target: Neu5Ac(a2-6)Gal(b1-4)GlcNAc(b1-2)Man(a1-6)[Man(a1-3)]Man(b1-4)GlcNAc(b1-4)GlcNAc
Outline: as §1

[28] = biological target: Neu5Ac(a2-6)Gal(b1-4)GlcNAc(b1-3)Gal(b1-3)GlcNAc
Outline: as §1

[29] = biological target: Neu5Ac(a2-6)Gal(b1-4)GlcNAc(b1-3)Gal(b1-4)GlcNAc
Outline: as §1

[30] = biological target: Neu5Ac(a2-6)Gal(b1-4)GlcNAc(b1-3)Gal(b1-4)GlcNAc(b1-3)Gal(b1-4)GlcNAc
Outline: as §1

[31] = biological target: Neu5Ac(a2-6)Gal(b1-4)GlcNAc(b1-3)Gal(b1-4)[Fuc(a1-3)]GlcNAc(b1-3)Gal(b1-4)[Fuc(a1-3)]GlcNAc
Outline: as §1

[32] = biological target: Neu5Ac(a2-6)Gal(b1-4)GlcNAc(b1-3)GalNAc
Outline: as §1

[33] = biological target: Neu5Ac(a2-6)Gal(b1-4)GlcNAc6S
Outline: as §1

Neu5Ac(a2-6)GalNAc = biological target: Neu5Ac(a2-6)GalNAc
Outline: as §1

[34] = biological target: Neu5Ac(a2-6)GalNAc(b1-4)GlcNAc
Outline: as §1

[35] = biological target: Neu5Ac(a2-6)GlcNAc(b1-4)GlcNAc
Outline: as §1

[36] = biological target: Neu5Ac(a2-6)GlcNAc(b1-4)GlcNAc(b1-4)GlcNAc
Outline: as §1

Neu5Ac(a2-8)Neu5Ac = biological target: Neu5Ac(a2-8)Neu5Ac
Outline: as §1

[37] = biological target: Neu5Ac(a2-8)Neu5Ac(a2-3)Gal(b1-4)Glc
Outline: as §1

[38] = biological target: Neu5Ac(a2-8)Neu5Ac(a2-3)[Gal(b1-3)GalNAc(b1-4)]Gal(b1-4)Glc
Outline: as §1

[39] = biological target: Neu5Ac(a2-8)Neu5Ac(a2-3)[GalNAc(b1-4)]Gal(b1-4)Glc
Outline: as §1

[40] = biological target: Neu5Ac(a2-8)Neu5Ac(a2-8)Neu5Ac
Outline: as §1

[41] = biological target: Neu5Ac(a2-8)Neu5Ac(a2-8)Neu5Ac(a2-3)Gal(b1-4)Glc
Outline: as §1

[42] = biological target: Neu5Ac(a2-8)Neu5Ac(a2-8)Neu5Ac(a2-3)[GalNAc(b1-4)]Gal(b1-4)Glc
Outline: as §1

[43] = biological target: Neu5Ac(a2-8)Neu5Ac(a2-8)Neu5Ac(a2-8)Neu5Ac(a2-3)[GalNAc(b1-4)]Gal(b1-4)Glc
Outline: as §1

[44] = biological target: Neu5Ac(b2-6)Gal(b1-4)GlcNAc
Outline: as §1

Neu5Ac(b2-6)GalNAc = biological target: Neu5Ac(b2-6)GalNAc
Outline: as §1

[45] = biological target: Neu5Ac9Ac(a2-3)Gal(b1-3)GlcNAc
Outline: as §1

[46] = biological target: Neu5Ac9Ac(a2-3)Gal(b1-4)GlcNAc
Outline: as §1

[47] = biological target: Neu5Ac9Ac(a2-6)Gal(b1-4)GlcNAc
Outline: as §1

[48] = biological target: Neu5Gc(a2-3)Gal(b1-3)GlcNAc
Outline: as §1

[49] = biological target: Neu5Gc(a2-3)Gal(b1-3)[Fuc(a1-4)]GlcNAc
Outline: as §1

Neu5Gc(a2-3)Gal(b1-4)Glc = biological target: Neu5Gc(a2-3)Gal(b1-4)Glc
Outline: as §1

[50] = biological target: Neu5Gc(a2-3)Gal(b1-4)GlcNAc
Outline: as §1

[51] = biological target: Neu5Gc(a2-3)Gal(b1-4)[Fuc(a1-3)]GlcNAc
Outline: as §1

[52] = biological target: Neu5Gc(a2-6)Gal(b1-4)GlcNAc
Outline: as §1

Neu5Gc(a2-6)GalNAc = biological target: Neu5Gc(a2-6)GalNAc
Outline: as §1

[53] = biological target: Neu5Gc(b2-6)Gal(b1-4)GlcNAc
Outline: as §1

B1: LSectin (Mus musculus), Q8BNX1 (protein)
chain: MNTGEYNKLGSAIEEVSRGQLGRWECYKQRLFFLVLALLVATVLWALILSTLLSSASSKLRVLLSHQDLLRTNASEQKMTLSSLKDDIGACRNCCSVTKAQLQTTLAEFKDIQAKLMEQESILKELQERVTQDLAKASRDRENIRSELFQALEAVKRQNSSCEQCPPSWLPFQGSCYYFSETQATWDTAQSYCGGQGAHLVIVRGLNEQGFLSQHTRGRGYWLGLRAVRHLNKIQGYRWVDGASLNFSHWNSGEPNDSRGHEDCIMMLHSGLWNDAPCTNERDGWICEKRSSCY
glycan array binding signal (z-score) [1]: -0.154
glycan array binding signal (z-score) [2]: -0.16
glycan array binding signal (z-score) [3]: -0.159
glycan array binding signal (z-score) [4]: -0.181
glycan array binding signal (z-score) [5]: -0.154
glycan array binding signal (z-score) [6]: -0.175
glycan array binding signal (z-score) [7]: -0.181
glycan array binding signal (z-score) [8]: -0.156
glycan array binding signal (z-score) [9]: -0.172
glycan array binding signal (z-score) [10]: -0.171
glycan array binding signal (z-score) (Neu5Ac(a2-3)GalNAc): -0.168
glycan array binding signal (z-score) [11]: -0.168
glycan array binding signal (z-score) [12]: -0.177
glycan array binding signal (z-score) [13]: -0.178
glycan array binding signal (z-score) [14]: -0.194
glycan array binding signal (z-score) [15]: -0.169
glycan array binding signal (z-score) (Neu5Ac(a2-6)Gal): -0.118
glycan array binding signal (z-score) [16]: -0.187
glycan array binding signal (z-score) (Neu5Ac(a2-6)Gal(b1-4)Glc): -0.167
glycan array binding signal (z-score) [17]: -0.155
glycan array binding signal (z-score) [18]: -0.189
glycan array binding signal (z-score) [19]: -0.173
glycan array binding signal (z-score) [20]: 1.53
glycan array binding signal (z-score) [21]: -0.184
glycan array binding signal (z-score) [22]: -0.191
glycan array binding signal (z-score) [23]: -0.176
glycan array binding signal (z-score) [24]: -0.182
glycan array binding signal (z-score) [25]: -0.153
glycan array binding signal (z-score) [26]: 4.19
glycan array binding signal (z-score) [27]: -0.143
glycan array binding signal (z-score) [28]: -0.187
glycan array binding signal (z-score) [29]: -0.175
glycan array binding signal (z-score) [30]: -0.182
glycan array binding signal (z-score) [31]: -0.166
glycan array binding signal (z-score) [32]: -0.187
glycan array binding signal (z-score) [33]: -0.152
glycan array binding signal (z-score) (Neu5Ac(a2-6)GalNAc): 0.717
glycan array binding signal (z-score) [34]: 3.69
glycan array binding signal (z-score) [35]: -0.18
glycan array binding signal (z-score) [36]: -0.185
glycan array binding signal (z-score) (Neu5Ac(a2-8)Neu5Ac): -0.178
glycan array binding signal (z-score) [37]: -0.158
glycan array binding signal (z-score) [38]: -0.183
glycan array binding signal (z-score) [39]: -0.173
glycan array binding signal (z-score) [40]: -0.178
glycan array binding signal (z-score) [41]: -0.185
glycan array binding signal (z-score) [42]: -0.159
glycan array binding signal (z-score) [43]: -0.179
glycan array binding signal (z-score) [44]: -0.172
glycan array binding signal (z-score) (Neu5Ac(b2-6)GalNAc): -0.18
glycan array binding signal (z-score) [45]: -0.187
glycan array binding signal (z-score) [46]: -0.187
glycan array binding signal (z-score) [47]: -0.16
glycan array binding signal (z-score) [48]: -0.164
glycan array binding signal (z-score) [49]: -0.167
glycan array binding signal (z-score) (Neu5Gc(a2-3)Gal(b1-4)Glc): -0.168
glycan array binding signal (z-score) [50]: -0.156
glycan array binding signal (z-score) [51]: -0.163
glycan array binding signal (z-score) [52]: -0.154
glycan array binding signal (z-score) (Neu5Gc(a2-6)GalNAc): -0.136
glycan array binding signal (z-score) [53]: -0.158
